This is one part of the list.

The target of the assay is T1, OsWOX13 (Oryza sativa, UniProt Q5QMM3 1-267).
T1 sequence: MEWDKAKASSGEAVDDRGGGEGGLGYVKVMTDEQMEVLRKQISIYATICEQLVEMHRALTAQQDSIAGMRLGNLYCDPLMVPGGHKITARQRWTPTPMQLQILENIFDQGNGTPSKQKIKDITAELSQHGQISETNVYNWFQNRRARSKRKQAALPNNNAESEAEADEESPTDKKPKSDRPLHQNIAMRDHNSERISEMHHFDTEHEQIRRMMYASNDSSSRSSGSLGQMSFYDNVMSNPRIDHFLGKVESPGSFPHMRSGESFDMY
As to the kind of experiment: protein-binding microarray (RPBM); PBS, 2% BSA, 51.3 ng/ul salmon testes DNA, 50 uM zinc acetate, 200 nM TF, 25 C, 1 h; high values mean tight binding. The conditions noted are these: protein: recombinant; tags: N-terminal polyhistidine and DsRed monomer fusion (pET32a); label: CyDye5-dUTP incorporated in the synthesized complementary strand; 3' TTTTT single-stranded linker to array surface; dsDNA, one strand shown. Summed up: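 Binding signal is reported as fluorescence intensity per feature (arbitrary units) from an Axon 4000B scanner. Incubation used 200 nM of each Ni–NTA-purified, N-terminally polyhistidine- and DsRed-fused transcription factor from E. coli BL21-CodonPlus on a double-stranded custom Agilent array for 1 h at 25 °C, with 50 µM zinc acetate in the buffer, followed by washing.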
In the case of “ATTATTCTTCTATCAATTATCTCCTCCCAAATCGTGTGATCGGAGTCACCTAGTGCAG”, the binding signal is 20900 fluorescence intensity (a.u.). The same measure for “CCGTCAATATAATTGAAATAAAGGAGAACTAGCTATACTTCGGAGTCACCTAGTGCAG”: 17400 fluorescence intensity (a.u.); for “TACACCTCTAATTATCCGCTTCACATGCTCGCTCTCTTCTCGGAGTCACCTAGTGCAG”: 5080 fluorescence intensity (a.u.). Regarding “GTGACCATCAATTTGTACTTAATAGGTGGATCCATTATTTCGGAGTCACCTAGTGCAG”, the binding signal was 10800 fluorescence intensity (a.u.). The same measure for “GCTAATTTATACAATAGTTGCTTACTATAGAATTAATGCACGGAGTCACCTAGTGCAG”: 27200 fluorescence intensity (a.u.); for “ATTAAGAATTGACGACTAGCTAGCTAGTATATATGTGTGTCGGAGTCACCTAGTGCAG”: 3250 fluorescence intensity (a.u.); for “GTTCAAATTGGATCGTGACGAGGAAGCCTTTTGCCGTCGTCGGAGTCACCTAGTGCAG”: 30200 fluorescence intensity (a.u.). The same measure for “AGAATAATTAGCCATAAATGTAAATGCATGTGTCAAATCTCGGAGTCACCTAGTGCAG”: 13200 fluorescence intensity (a.u.); for “TTTGATATGTTTGAATCAAACTGATTTAGTTTTCACATTTCGGAGTCACCTAGTGCAG”: 6380 fluorescence intensity (a.u.); for “TACATGATTTTGTTTTCCATATTATTACCAGTATCATATGCGGAGTCACCTAGTGCAG”: 15600 fluorescence intensity (a.u.). Regarding “ATTTTATAATTAGCTGTGTAGCTCCATCGTTTGGCTTATACGGAGTCACCTAGTGCAG”, the binding signal is 10900 fluorescence intensity (a.u.). As for “TTAATTAGAGCAAATTAAGATAATGTAGCCTTCAAATTTCCGGAGTCACCTAGTGCAG”, the figure is 21400 fluorescence intensity (a.u.). The same measure for “CTCAATTATAATCATGTTCGATTTTCAAATCTCAACGATACGGAGTCACCTAGTGCAG”: 9770 fluorescence intensity (a.u.); for “TCAACTCCATCTGGTCATCAATCACTCTACCTTCATCTTCCGGAGTCACCTAGTGCAG”: 5420 fluorescence intensity (a.u.); for “AAGTAATTGAAATGGTTGAATGGTTCATACAATTCAATCACGGAGTCACCTAGTGCAG”: 17400 fluorescence intensity (a.u.).

Turning to “CAATGATAAATGACAGTCTTACCCTTTCATCTCCCCTTCACGGAGTCACCTAGTGCAG”, the binding signal is 7210 fluorescence intensity (a.u.). With “GCCAACTAATCACTGATAATGGGCTCACTGCAATTGCAAGCGGAGTCACCTAGTGCAG”, the binding signal is 15000 fluorescence intensity (a.u.).

With “ATCTTACCTTGATTGTAAATTTGTGATCTGCAATGCCCATCGGAGTCACCTAGTGCAG”, the binding signal is 25700 fluorescence intensity (a.u.). As for “CCGTAAATTAAGCCACGTTCTAGAGGCGCATAACGTCAAGCGGAGTCACCTAGTGCAG”, the figure is 4460 fluorescence intensity (a.u.); as for “CATAAATCATTTCTTTTGTTTTCAAACTAAGCATATTTGACGGAGTCACCTAGTGCAG”, 4540 fluorescence intensity (a.u.); as for “CCATAGATTGCAAACTTATATAACCTCGCTCGCACGGAGACGGAGTCACCTAGTGCAG”, 11000 fluorescence intensity (a.u.).

On to “GCTGATTAAGAAGGAGACCTCTCGGTTGATGCTAGCTGAACGGAGTCACCTAGTGCAG”, for which the binding signal was 11500 fluorescence intensity (a.u.). The same measure for “ACACAAGATTAATTAAGGAGAGGTGAGTTAGTATAGAGGTCGGAGTCACCTAGTGCAG”: 5940 fluorescence intensity (a.u.); for “ACTAAAATTATATTAGATACTTTCTTGGTATGGATTAATGCGGAGTCACCTAGTGCAG”: 5510 fluorescence intensity (a.u.); for “CGCGCATCAATCTCCATCCTACCACCAGCAATGATGCGGGCGGAGTCACCTAGTGCAG”: 3800 fluorescence intensity (a.u.). The same measure for “TTTTAATAAACATACTCAATGACCACGCACTTCTGCTGTACGGAGTCACCTAGTGCAG”: 3410 fluorescence intensity (a.u.); for “AGATAATTGCTTATGGAACAAGTTTTCTGTAGTAGTAGATCGGAGTCACCTAGTGCAG”: 31400 fluorescence intensity (a.u.). Consider “AATAATTAGTTTCTCGTTCATTGCAAATTGCAGCGAGATTCGGAGTCACCTAGTGCAG”, for which the binding signal was 19000 fluorescence intensity (a.u.). The same measure for “TCTTGATCCTGATGAAATTGAAGAAGAGCAGCGTGAGAGGCGGAGTCACCTAGTGCAG”: 5840 fluorescence intensity (a.u.). The same measure for “TTTGACGTGACAAAATCGGTGCGTGTCGTGGTGGGGCCCGCGGAGTCACCTAGTGCAG”: 6590 fluorescence intensity (a.u.); for “TCTTCATGCCACATAATTGGCTGCTCCTTTAGGGCACTCACGGAGTCACCTAGTGCAG”: 4570 fluorescence intensity (a.u.). As for “TATTGATTGTATGATTTGGAGAAAATCCAACCTCCGCCCCCGGAGTCACCTAGTGCAG”, the figure is 51500 fluorescence intensity (a.u.); as for “ATATCATATTAATTTATTTCAAGTTTGTTTGGTACGTAAACGGAGTCACCTAGTGCAG”, 5060 fluorescence intensity (a.u.); as for “GAGGTGGGATAATTATTTTGCTATTGTATAAACGAATGATCGGAGTCACCTAGTGCAG”, 5240 fluorescence intensity (a.u.). Turning to “CAAGATGTTAATTGTTAAATGGGTCACTTCCTCATCTCTCCGGAGTCACCTAGTGCAG”, the binding signal was 27700 fluorescence intensity (a.u.). The same measure for “CATCCATCACATATTTTACAGTGTCGCTATTCTCAATTAACGGAGTCACCTAGTGCAG”: 4100 fluorescence intensity (a.u.).

With “GCGACACAGACTGATGGGCTTAACTGGGCCCACGTCACTACGGAGTCACCTAGTGCAG”, the binding signal is 5330 fluorescence intensity (a.u.).

Take “CGGCGGCGGTGGTGGGGAGGAGGAGGGCCAGCGGCAGCAACGGAGTCACCTAGTGCAG”: the binding signal is 4280 fluorescence intensity (a.u.). As for “CTGAATTCTGACATGAATGGCAATGGATAATTTTGCAGCACGGAGTCACCTAGTGCAG”, the figure is 5540 fluorescence intensity (a.u.); as for “GTTACGGCTGTCAATTATGAAATGAATCGGAGAGAATATCCGGAGTCACCTAGTGCAG”, 10300 fluorescence intensity (a.u.). As for “CTAGATATAACTGCACACATTTATATTATATAATCTTTGACGGAGTCACCTAGTGCAG”, the figure is 4590 fluorescence intensity (a.u.); as for “TGGAGGAATTGATTGTAGACCCTTGAAGGGAGTACAATAACGGAGTCACCTAGTGCAG”, 10100 fluorescence intensity (a.u.).

(Values after article PMC7819943, “Rice protein-binding microarrays: a tool to detect cis-acting elements near promoter regions in rice”.)
